Reference: patent US20190083612A1 (RINAT NEUROSCIENCE, published 2019)
Several values for one entry are separate records, joined by “and”; a condition that tells them apart may be missing. Identical values can stand only once.

Columns and labels:
[1] = target: T1, human PD-1 (hPD-1) monomer (human, UniProt Q15116 part only); test: KinExA in solution, 23 C, mAb titrated; 95% confidence interval (28-18), n 3
T1 construct: also called hu-PD-1; not shown: His tag (His-tagged monomer)

[2] = target: T2, human PD-1 on stably transfected Jurkat cells (human, UniProt Q15116 25-288); test: FACS, blockade of biotinylated hu-PD-L1 (20 µg/mL) on human-PD-1/Jurkat, repeat 2
T2 construct: also called Jurkat/Human-PD-1; Human-PD-1/Jurkat

[3] = target: T2, human PD-1 on stably transfected Jurkat …; test: FACS, blockade of biotinylated hu-PD-L2 on human-PD-1/Jurkat, average ± sem
[4] = target: T3, cynomolgus monkey PD-1 on primary cynomolgus monkey T cells (cynomolgus monkey, UniProt B0LAJ3 25-288); test: FACS, activated primary cynomolgus monkey T cells, individual 2
T3 construct: also called PD-1 on cyno T cells

[5] = target: T4, cynomolgus monkey PD-1 on stably transfected Jurkat cells (cynomolgus monkey); test: FACS, blockade of cyno PD-L1 on cyno-PD-1/Jurkat, average ± sem
T4 construct: whole, on cells; also called Jurkat/Cynomolgus Monkey-PD-1; Cynomolgus Monkey-PD-1/Jurkat

[6] = target: T1, human PD-1 (hPD-1) monomer; test: SPR (ProteOn), hPD-1 monomer over amine-coupled IgG, 25 C; N = 2
Method: All interaction analysis was performed on label-free biosensors at 25° C. unless stated otherwise. Surface plasmon resonance biosensors (ProteOn-XPR™ from BioRad™, and Biacore 2000™ and Biacore T200™ from GE Life Sciences) were used to study human and cynomolgus monkey PD-1 and a biolayer interferometry biosensor (Octet-Red384, Fortebio/Pall Life Sciences) was used to study mouse PD-1. ProteOn experiments were performed in PBS pH 7.4+0.01% Tween-20 (PBST) running buffer. Biacore experiments were performed in 10 mM Hepes pH 7.4, 150 mM NaCl, 0.05% Tween-20 (HBST+) and Octet experiments were performed in HBST+ with 1 g/l BSA. The ProteOn data were processed in the ProteOn Manager software, the Biacore data were processed in Biaevaluation, and the Octet data were simply aligned to zero in the control software.
The surfaces for these experiments were prepared in three steps; (1) the ligand channels were minimally activated for two min using a freshly prepared mixture of the activation reagents at final 0.8 mM EDC and 0.2 mM sulfo-NHS in water, (2) the IgGs were coupled for three min at 15 μg/ml in 10 mM sodium acetate pH 4.5, and (3) excess reactive esters were blocked for three min with 1 M ethanolamine HCl pH 8.5. […] Association and dissociation times were 3 min and 20 min, respectively and all analytes were injected in duplicate binding cycles. […]

[7] = target: T5, human PD-1 on primary human T cells (human, UniProt Q15116 25-288); test: FACS, blockade of PD-L1 Fc binding to PD-1 on activated human T cells
T5 construct: Endogenous PD-1 of donor T cells; also called hu-PD-1; PD-1 on human T cells

Cynomolgus Monkey-FcRn = target: T6, Cynomolgus Monkey-FcRn (cynomolgus monkey, UniProt Q8SPV9 24-297, limits assumed); test: SPR (ProteOn NLC chip), 25 C, pH 5.9
T6 construct: also called cynomolgus monkey-neonatal Fc receptor

[8] = target: hu-FcRn (human neonatal Fc receptor) (human, UniProt P55899 part only; P61769 part only, limits assumed); test: SPR (ProteOn NLC chip), 25 C, pH 5.9
[9] = target: T5, human PD-1 on primary human T cells; test: flow cytometry on primary human T cells activated 3 days with CD3/CD28 beads; APC-labelled anti-human IgG F(ab')2 secondary; geometric mean of fluorescence
[10] = target: T7, rat PD-1 on primary rat T cells (rat, UniProt D3ZIN8 25-287); test: flow cytometry, activated primary T cells
T7 sequence: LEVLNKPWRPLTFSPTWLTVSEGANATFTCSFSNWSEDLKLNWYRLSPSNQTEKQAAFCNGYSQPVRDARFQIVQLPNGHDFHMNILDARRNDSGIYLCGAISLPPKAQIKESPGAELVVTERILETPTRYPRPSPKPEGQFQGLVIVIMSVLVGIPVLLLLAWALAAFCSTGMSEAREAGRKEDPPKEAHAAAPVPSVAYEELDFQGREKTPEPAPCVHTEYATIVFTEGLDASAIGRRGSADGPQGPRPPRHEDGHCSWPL

[11] = target: T5, human PD-1 on primary human T cells; test: FACS, activated primary human T cells, individual 2
[12] = target: T8, mouse-PD-1 (recombinant purified, Example 12) (mouse, UniProt Q02242 25-167, limits assumed); test: SPR (ProteOn NLC chip), 25 C, n 5
T8 sequence (looked up): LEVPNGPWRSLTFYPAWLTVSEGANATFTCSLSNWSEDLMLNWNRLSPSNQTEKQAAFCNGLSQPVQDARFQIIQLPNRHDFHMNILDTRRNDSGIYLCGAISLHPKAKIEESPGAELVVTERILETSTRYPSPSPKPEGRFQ

[13] = target: T5, human PD-1 on primary human T cells; test: FACS, activated primary human T cells, average ± sem
[14] = target: T4, cynomolgus monkey PD-1 on stably …; test: FACS, blockade of cyno PD-L2 on cyno-PD-1/Jurkat, average ± sem
[15] = target: T3, cynomolgus monkey PD-1 on primary …; test: flow cytometry on primary cynomolgus monkey T cells activated with a non-human primate T cell activation/expansion kit; APC-labelled anti-human IgG F(ab')2 secondary; geometric mean of fluorescence
[16] = target: T1, human PD-1 (hPD-1) monomer; test: SPR (ProteOn), hPD-1 monomer over amine-coupled IgG, 25 C; 5% rule
Method: The surfaces for these experiments were prepared in three steps; (1) the ligand channels were minimally activated for two min using a freshly prepared mixture of the activation reagents at final 0.8 mM EDC and 0.2 mM sulfo-NHS in water, (2) the IgGs were coupled for three min at 15 μg/ml in 10 mM sodium acetate pH 4.5, and (3) excess reactive esters were blocked for three min with 1 M ethanolamine HCl pH 8.5. […] Association and dissociation times were 3 min and 20 min, respectively and all analytes were injected in duplicate binding cycles. Surfaces were regenerated with a cocktail of 2:1 v/v Pierce IgG elution buffer (pH 2.8):4 M NaCl.
N=2 refers to two independent experiments on different chips.

T5 sequence (Q15116 25-288 limits assumed): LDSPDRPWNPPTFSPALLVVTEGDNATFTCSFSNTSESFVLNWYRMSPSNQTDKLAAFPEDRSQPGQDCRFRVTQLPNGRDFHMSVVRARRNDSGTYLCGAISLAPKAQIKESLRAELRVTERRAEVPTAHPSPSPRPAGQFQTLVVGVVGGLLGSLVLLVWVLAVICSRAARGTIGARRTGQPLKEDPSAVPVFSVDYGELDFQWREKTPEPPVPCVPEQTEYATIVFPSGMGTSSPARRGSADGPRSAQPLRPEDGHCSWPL
T1 sequence (Q15116 25-167 limits assumed): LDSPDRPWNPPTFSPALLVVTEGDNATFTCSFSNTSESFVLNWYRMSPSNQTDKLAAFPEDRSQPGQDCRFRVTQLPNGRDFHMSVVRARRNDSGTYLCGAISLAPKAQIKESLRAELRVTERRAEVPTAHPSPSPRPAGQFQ
T3 sequence (B0LAJ3 entry or part of it limits assumed): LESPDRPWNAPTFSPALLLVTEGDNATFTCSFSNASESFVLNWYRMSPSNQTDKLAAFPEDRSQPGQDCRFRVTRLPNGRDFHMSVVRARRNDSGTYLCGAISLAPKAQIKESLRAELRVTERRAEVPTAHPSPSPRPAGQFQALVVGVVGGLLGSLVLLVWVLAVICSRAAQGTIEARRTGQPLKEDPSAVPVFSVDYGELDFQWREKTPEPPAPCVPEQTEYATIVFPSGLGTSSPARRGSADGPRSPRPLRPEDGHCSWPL
Sequence of Cynomolgus Monkey-FcRn (Q8SPV9 24-297 limits assumed, form in doubt): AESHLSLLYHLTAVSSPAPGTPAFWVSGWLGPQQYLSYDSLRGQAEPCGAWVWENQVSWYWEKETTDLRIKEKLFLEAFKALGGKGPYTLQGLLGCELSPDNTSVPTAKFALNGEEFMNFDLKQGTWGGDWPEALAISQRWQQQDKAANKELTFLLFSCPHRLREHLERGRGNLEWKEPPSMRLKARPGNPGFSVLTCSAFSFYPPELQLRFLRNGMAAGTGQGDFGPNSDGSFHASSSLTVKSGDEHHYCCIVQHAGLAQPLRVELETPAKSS
Sequence of UniProt P55899 (P55899 24-297 limits assumed, chain 1 of 2): as the sequence (Q8SPV9 24-297 limits assumed, form in doubt) above, with D39N, Q44E, S99G, G189S, N190S, M217L, T269S counted along it
Sequence of UniProt P55899 (P61769 21-119 limits assumed, chain 2 of 2, further chain): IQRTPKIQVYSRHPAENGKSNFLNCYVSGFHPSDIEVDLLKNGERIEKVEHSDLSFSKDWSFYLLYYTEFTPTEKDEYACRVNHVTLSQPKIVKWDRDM

B1: mAb7 (human IgG4 kappa, hinge stabilized) (antibody)
heavy: QVQLVQSGAEVKKPGASVKVSCKASGYTFTSYWINWVRQAPGQGLEWMGNIYPGSSLTNYNEKFKNRVTMTRDTSTSTVYMELSSLRSEDTAVYYCARLSTGTFAYWGQGTLVTVSSASTKGPSVFPLAPCSRSTSESTAALGCLVKDYFPEPVTVSWNSGALTSGVHTFPAVLQSSGLYSLSSVVTVPSSSLGTKTYTCNVDHKPSNTKVDKRV[human IgG4 Fc with S228P (EU numbers) skipped]
light: DIVMTQSPDSLAVSLGERATINCKSSQSLWDSGNQKNFLTWYQQKPGQPPKLLIYWTSYRESGVPDRFSGSGSGTDFTLTISSLQAEDVAVYYCQNDYFYPHTFGGGTKVEIKRGTVAAPSVFIFPPSDEQLKSGTASVVCLLNNFYPREAKVQWKVDNALQSGNSQESVTEQDSKDSTYSLSSTLTLSKADYEKHKVYACEVTHQGLSSPVTKSFNRGEC
notes: also called mAb7-G4; mAb7 (G4); copies: 2 + 2
Kd [1]: 0.023 nM | IC50 [2]: 1.17 nM | IC50 [3]: 1.06 nM | EC50 [4]: 0.0971 nM | IC50 [5]: 0.943 nM | Kd [6]: < 0.094 nM | kon [6]: 453000 M⁻¹ s⁻¹ and 445000 M⁻¹ s⁻¹ | IC50 [7]: 1.12 nM | Kd (Cynomolgus Monkey-FcRn): 610 nM | Kd [8]: 930 nM | EC50 (read off the curve) [9]: ~0.2 nM | binding result [10]: no binding | EC50 [11]: 0.0561 nM | Kd [12]: 900 nM | koff [12]: 0.0052 s⁻¹ | kon [12]: 6000 M⁻¹ s⁻¹ | EC50 [13]: 0.051 nM | IC50 [14]: 0.839 nM | EC50 (read off the curve) [15]: ~0.4 nM | koff [16]: < 4.3e-05 s⁻¹
